According to the supplement of paper PMC4604168 (melanoma cell lines):
Some of the results follow. Most values come without repeats; read them as rough.

Columns and labels:
Assay in all cases: cell count relative to DMSO control; melanoma cells; higher = more viable cells
Settings in all cases: library dose: standard library concentration; 72 h
G361 = tested on: G361
IPC-298 = tested on: IPC-298
IST-MEL1 = tested on: IST-MEL1
LB2518-MEL = tested on: LB2518-MEL
LOXIMVI = tested on: LOXIMVI
MEL-HO = tested on: MEL-HO
MZ2-MEL = tested on: MZ2-MEL
MeWo = tested on: MeWo
RPMI7951 = tested on: RPMI7951
RVH-421 = tested on: RVH-421
SkMel28 = tested on: SkMel28
SkMel2 = tested on: SkMel2
SkMel30 = tested on: SkMel30
SkMel5 = tested on: SkMel5
UACC257 = tested on: UACC257
UACC62 = tested on: UACC62
WM115 = tested on: WM115
WM1716 = tested on: WM1716
WM1745 = tested on: WM1745
WM3526 = tested on: WM3526
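Also: cells treated in 1,536-well plates, then fixed and DAPI-stained, with nuclei counted from automated high-throughput microscope images.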

| SMILES | cell count (G361) [%] | cell count (IPC-298) [%] | cell count (IST-MEL1) [%] | cell count (LB2518-MEL) [%] | cell count (LOXIMVI) [%] | cell count (MEL-HO) [%] | cell count (MZ2-MEL) [%] | cell count (MeWo) [%] | cell count (RPMI7951) [%] | cell count (RVH-421) [%] | cell count (SkMel28) [%] | cell count (SkMel2) [%] | cell count (SkMel30) [%] | cell count (SkMel5) [%] | cell count (UACC257) [%] | cell count (UACC62) [%] | cell count (WM115) [%] | cell count (WM1716) [%] | cell count (WM1745) [%] | cell count (WM3526) [%] |
| --- | --- | --- | --- | --- | --- | --- | --- | --- | --- | --- | --- | --- | --- | --- | --- | --- | --- | --- | --- | --- |
| Cn1cnc2c(F)c(Nc3ccc(Br)cc3Cl)c(C(=O)NOCCO)cc21 [selumetinib] + CN(c1ncccc1CNc1nc(Nc2ccc3c(c2)CC(=O)N3)ncc1C(F)(F)F)S(C)(=O)=O [PF562271] (first compound 0.075 µM, partner dose 0.4 µM) | 67.7 | 40.4 | 80.2 | 35 | 149 | 84 | 61.1 | 82.4 | 65.9 | 74.5 | 35 | 25.7 | 57.3 | 58.6 | 85.2 | 42.5 | 58.9 | 64.3 | 63.1 | 49.8 |
| COc1cc([C@@H]2c3cc4c(cc3[C@@H](O[C@@H]3O[C@@H]5CO[C@@H](C)O[C@H]5[C@H](O)[C@H]3O)[C@H]3COC(=O)[C@H]23)OCO4)cc(OC)c1O [etoposide] + COc1cc2c(Oc3ccc4[nH]c(C)cc4c3F)ncnc2cc1OCCCN1CCCC1 [cediranib] (first compound 0.1 µM, partner dose 2 µM) | 97.5 | 77.9 | 99.4 | 69.3 | 70.3 | 105 | 73 | 83.1 | 119 | 93.9 | 78.2 | 63.1 | 97.3 | 67.3 | 94.3 | 66.6 | 73.7 | 69.4 | 86.7 | 83.5 |
| COc1cc([C@@H]2c3cc4c(cc3[C@@H](O[C@@H]3O[C@@H]5CO[C@@H](C)O[C@H]5[C@H](O)[C@H]3O)[C@H]3COC(=O)[C@H]23)OCO4)cc(OC)c1O [etoposide] + CNC(=O)c1cc(Oc2ccc(NC(=O)Nc3ccc(Cl)c(C(F)(F)F)c3)cc2)ccn1 [sorafenib] (first compound 0.1 µM, partner dose 2 µM) | 88.8 | 69.9 | 101 | 68.8 | 153 | 112 | 69 | 77.7 | 98.1 | 100 | 108 | 77.9 | 112 | 90.5 | 89.8 | 82.9 | 99 | 76.6 | 85.1 | 104 |
| Cn1cnc2c(F)c(Nc3ccc(Br)cc3Cl)c(C(=O)NOCCO)cc21 [selumetinib] + O=C(O)[C@@H]1[O][Sb](=[O])([O][Sb]2(=[O])[O][C@H]([C@H](O)CO)[C@H](O)[C@H](C(=O)O)[O]2)[O][C@H]([C@H](O)CO)[C@@H]1O [stibogluconate] (first compound 0.075 µM, partner dose 10 µM) | 55.8 | 48.2 | 83.5 | 37.2 | 121 | 81.8 | 56.9 | 72.5 | 106 | 245 | 32.7 | 41.6 | 47.4 | 69.5 | 90.1 | 54.3 | 59.1 | 69.5 | 64 | 37.9 |
| COc1cc([C@@H]2c3cc4c(cc3[C@@H](O[C@@H]3O[C@@H]5CO[C@@H](C)O[C@H]5[C@H](O)[C@H]3O)[C@H]3COC(=O)[C@H]23)OCO4)cc(OC)c1O [etoposide] + C=C(c1ccc(C(=O)O)cc1)c1cc2c(cc1C)C(C)(C)CCC2(C)C [Bexarotene] (first compound 0.1 µM, partner dose 10 µM) | 80.9 | 60.6 | 96.9 | 84.7 | 125 | 89.9 | 72.6 | 80.2 | 68.6 | 97.6 | 70.2 | 73.5 | 99.5 | 83.2 | 78.5 | 51.4 | 85.8 | 64.2 | 98.1 | 93.7 |
| CCN(CC)CCNC(=O)c1c(C)[nH]c(/C=C2\C(=O)Nc3ccc(F)cc32)c1C [sunitinib] + NC(=O)Nc1cc(-c2cccc(F)c2)sc1C(=O)N[C@H]1CCCNC1 [AZD7762] (first compound 2 µM, partner dose 0.1 µM) | 65.1 | 84.5 | 102 | 57 | 70.9 | 79.9 | 131 | 59.3 | 38.7 | 75.2 | 39.9 | 68 | 58 | 40.8 | 95.8 | 54.6 | 42.7 | 71.4 | 29.5 | 46.3 |
| Cn1cnc2c(F)c(Nc3ccc(Br)cc3Cl)c(C(=O)NOCCO)cc21 [selumetinib] + CN(C)S(=O)(=O)c1ccc2c(c1)/C(=C/c1cc3c([nH]1)CCCC3)C(=O)N2 [SU6656] (first compound 0.075 µM, partner dose 2 µM) | 57 | 51.6 | 75.1 | 36.4 | 96 | 75.6 | 41.6 | 57.4 | 65.6 | 73.8 | 44 | 41.4 | 66.7 | 68.8 | 79.7 | 70.1 | 50.9 | 68.8 | 44.2 | 44.9 |
| CCN(CC)CCNC(=O)c1c(C)[nH]c(/C=C2\C(=O)Nc3ccc(F)cc32)c1C [sunitinib] + COCC[n+]1c2c(n(Cc3cnccn3)c1C)C(=O)c1ccccc1C2=O [YM155] (first compound 2 µM, partner dose 0.002 µM) | 88.4 | 69.5 | 76.9 | 29.8 | 174 | 118 | 39.4 | 51 | 54.2 | 110 | 54 | 49.2 | 66.4 | 42.3 | 31.5 | 62.1 | 46.9 | 75.9 | 59.2 | 50.6 |
